# In the supplement of paper PMC4604168 (melanoma cell lines):
# The list shows a part of the results. Repeats are few or missing, and single values can be far off.
# Test system: UACC257
# Test: cell count relative to DMSO control; melanoma cells; higher = more viable cells
# Settings: library dose: standard library concentration; 72 h
# 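Further: cells treated in 1,536-well plates, then fixed and DAPI-stained, with nuclei counted from automated high-throughput microscope images.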
row,Structure (SMILES),cell count [%]
1,"NC(=O)c1ccc(N(C(N)=O)c2c(F)cccc2F)nc1-c1ccc(F)cc1F + O=C1NC(=O)/C(=C/c2ccc(-c3ccc(F)cc3O)o2)S1 [AS252424] (first compound 2 µM, partner dose 5 µM)",89.4
2,"NC(=O)c1ccc(N(C(N)=O)c2c(F)cccc2F)nc1-c1ccc(F)cc1F + COc1ccc(COc2ccc(Cc3cnc(N)nc3N)cc2OC)cc1 [GW2580] (first compound 2 µM, partner dose 5 µM)",91.1
3,"NC(=O)c1ccc(N(C(N)=O)c2c(F)cccc2F)nc1-c1ccc(F)cc1F + O=C(O)C(=O)Nc1sc2c(c1C(=O)O)CCNC2 [TCS401] (first compound 2 µM, partner dose 8.33333 µM)",89.1
4,"CC(C)(C)c1cnc(CSc2cnc(NC(=O)C3CCNCC3)s2)o1 + CC(C)CCN1c2nc(Nc3cc(F)c(O)c(F)c3)ncc2N(C)C(=O)C1C [BID1870] (first compound 0.05 µM, partner dose 1 µM)",77.9
5,"COc1cc2c(Oc3ccc4[nH]c(C)cc4c3F)ncnc2cc1OCCCN1CCCC1 [cediranib] + COc1ccc(-c2ccc3c(N4CCOCC4)nc(N4C[C@@H](C)O[C@@H](C)C4)nc3n2)cc1CO [KU0063794] (first compound 2 µM, partner dose 0.1 µM)",92.7
6,"CCc1ccc(CCOc2ccc(CC3SC(=O)NC3=O)cc2)nc1 (stereo unspecified) [pioglitazone] + Cn1cc(/C=C2\C(=O)Nc3cccnc32)c2ccccc21 [GW441756] (first compound 10 µM, partner dose 2 µM)",81
7,"NC(=O)c1ccc(N(C(N)=O)c2c(F)cccc2F)nc1-c1ccc(F)cc1F + O=c1cc(-c2cccc3c2Sc2ccccc2S3)oc(N2CCOCC2)c1 [KU55933] (first compound 2 µM, partner dose 5 µM)",86.6
8,"CN(NC(=O)CC(=O)NN(C)C(=S)c1ccccc1)C(=S)c1ccccc1 + CCc1ccc(CCOc2ccc(CC3SC(=O)NC3=O)cc2)nc1 [pioglitazone] (first compound 0.03 µM, partner dose 10 µM)",98.5
9,"NC(=O)c1ccc(N(C(N)=O)c2c(F)cccc2F)nc1-c1ccc(F)cc1F + c1cc(-c2cnn3cc(-c4ccc(OCCN5CCCCC5)cc4)cnc23)ccn1 [Dorsomorphin] (first compound 2 µM, partner dose 2 µM)",97.6
10,"Cc1ccc(NC(=O)c2cccc(N(C)C)c2)cc1NC(=O)c1ccc(O)cc1 + COc1ccc(-c2ccc3c(N4CCOCC4)nc(N4C[C@@H](C)O[C@@H](C)C4)nc3n2)cc1CO [KU0063794] (first compound 10 µM, partner dose 0.1 µM)",93.1
11,"NC(=O)c1ccc(N(C(N)=O)c2c(F)cccc2F)nc1-c1ccc(F)cc1F + CCN(CC)CCCCNc1ncc2cc(-c3cc(OC)cc(OC)c3)c(NC(=O)NC(C)(C)C)nc2n1 [PD173074] (first compound 2 µM, partner dose 0.5 µM)",118
12,"CCCCCCCCc1ccc(CCC(N)(CO)CO)cc1 [fingolimod] + Oc1nc(-c2ccc(C(F)(F)F)cc2)nc2c1CSCC2 [XAV939] (first compound 10 µM, partner dose 10 µM)",81.1
13,"NC(=O)c1ccc(N(C(N)=O)c2c(F)cccc2F)nc1-c1ccc(F)cc1F + COc1cc2ncnc(Nc3ccc(Oc4ccccc4)cc3)c2cc1OC [SrcI1] (first compound 2 µM, partner dose 10 µM)",88.6
14,"CCCCCCCCc1ccc(CCC(N)(CO)CO)cc1 [fingolimod] + Oc1cc(-c2nc(-c3ccccc3)[nH]c2-c2ccncc2)ccc1Cl [L779450] (first compound 10 µM, partner dose 1 µM)",66.5
15,"NC(=O)c1ccc(N(C(N)=O)c2c(F)cccc2F)nc1-c1ccc(F)cc1F + Oc1cc(-c2nc(-c3ccccc3)[nH]c2-c2ccncc2)ccc1Cl [L779450] (first compound 2 µM, partner dose 1 µM)",82.8
16,"COc1cc2c(Oc3ccc4[nH]c(C)cc4c3F)ncnc2cc1OCCCN1CCCC1 [cediranib] + COC(=O)c1sccc1S(=O)(=O)Nc1ccc(Nc2ccccc2)cc1OC [GSK0660] (first compound 2 µM, partner dose 5 µM)",81.2
